# Data published in PubChem BioAssay (Tox21).
# Inconclusive means that the source gave no clear call. Such entries were picked first, then a sample of the others. For some of these results: Potencies of inconclusive entries are doubtful fits and often do not repeat. A structure can be active in one record and inactive in another. Activity calls are given as the source filed them. Unless noted, the call rests on the fitted dose curve; in most records, active means well fitted curve in the direction sought with a large enough effect in the repeat runs; inconclusive means weak or mixed curves; inactive means no such curve, though single readings can be large; an effect the other way counts as inactive or inconclusive.
# Experiments:
# [1] = biological target: Androgen receptor (Homo sapiens) (UniProt P10275); test: qHTS assay to identify small molecule antagonists of the androgen receptor (AR) signaling pathway (AID 743035; active means well fitted inhibition curve with a large enough effect in the signal ratio in the repeat runs, not every such curve was filed as active; inconclusive means weak or mixed curves, or effect the other way; inactive means no such curve, though single readings can be large or run the other way; the % refers to the signal ratio; further: potency means the concentration at half of the fitted maximal effect); conditions: HEK293 AR-UAS-bla, R1881-stimulated, beta-lactamase FRET, 16 h; activity change, negative = inhibition: at 58.5 µM (top of the series) unless noted
# UniProt P10275, sequence (P10275 whole entry, looked up): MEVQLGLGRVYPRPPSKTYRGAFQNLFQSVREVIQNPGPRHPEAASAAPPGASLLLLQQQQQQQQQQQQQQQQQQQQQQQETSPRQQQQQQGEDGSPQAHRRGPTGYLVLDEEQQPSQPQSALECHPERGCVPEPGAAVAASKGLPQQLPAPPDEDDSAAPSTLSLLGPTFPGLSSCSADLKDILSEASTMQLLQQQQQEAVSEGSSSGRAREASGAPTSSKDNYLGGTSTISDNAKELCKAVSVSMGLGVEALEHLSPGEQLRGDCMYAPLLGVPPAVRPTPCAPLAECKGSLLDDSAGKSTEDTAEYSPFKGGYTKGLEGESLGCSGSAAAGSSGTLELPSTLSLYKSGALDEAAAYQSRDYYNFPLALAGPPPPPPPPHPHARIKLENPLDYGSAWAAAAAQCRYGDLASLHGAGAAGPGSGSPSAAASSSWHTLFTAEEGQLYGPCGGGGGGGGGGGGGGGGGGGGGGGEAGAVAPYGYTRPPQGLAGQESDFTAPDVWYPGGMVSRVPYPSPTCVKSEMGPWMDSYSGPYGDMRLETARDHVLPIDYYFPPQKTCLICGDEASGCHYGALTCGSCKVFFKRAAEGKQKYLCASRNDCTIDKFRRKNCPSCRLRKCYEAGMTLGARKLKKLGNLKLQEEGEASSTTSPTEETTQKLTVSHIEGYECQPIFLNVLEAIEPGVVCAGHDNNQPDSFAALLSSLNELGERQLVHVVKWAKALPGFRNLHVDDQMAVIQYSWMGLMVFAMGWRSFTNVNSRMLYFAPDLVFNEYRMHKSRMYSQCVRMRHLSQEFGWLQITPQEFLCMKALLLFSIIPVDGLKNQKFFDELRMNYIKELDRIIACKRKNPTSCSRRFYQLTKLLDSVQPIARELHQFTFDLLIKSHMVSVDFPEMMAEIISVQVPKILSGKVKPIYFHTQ
# Outline: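 Using qHTS, AR-UAS-bla GripTite HEK293 cells received compound, then R1881, and were cultured 16 h at 37C/5% CO2 before a 2 h room-temperature LiveBLAzer B/G FRET substrate step and fluorescence measurement.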
# [2] = biological target: Androgen receptor (Homo sapiens) (UniProt P10275); test: qHTS assay to identify small molecule agonists of the androgen receptor (AR) signaling pathway (AID 743036; active means well fitted activation curve with a large enough effect in the signal ratio in the repeat runs, with a control signal flat, not every such curve was filed as active; inconclusive means weak or mixed curves, or effect the other way; inactive means no such curve, though single readings can be large or run the other way; the % refers to the signal ratio; further: potency means the concentration at half of the fitted maximal effect); conditions: HEK293 AR-UAS-bla GripTite, beta-lactamase FRET ratio, 16 h; activation: at 62.4 µM (top of the series) unless noted
# Outline: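 Agonist activity was scored by beta-lactamase reporter fluorescence in stably transfected HEK293 cells exposed to compounds for 16 h at 37C and 5% CO2. Substrate loading took 2 h at room temperature.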
# [3] = qHTS assay to identify small molecule antagonists of the thyroid receptor (TR) signaling pathway - cell viability counter screen (AID 743064); conditions: GH3.TRE-Luc viability, CellTiter-Fluor, 24 h; activity change, negative = cytotoxic: at 70.3 µM (top of the series) unless noted; further: nearly all actives have a fitted effect of over 50% in size; further: potency means the concentration at half of the fitted maximal effect; on activity change, negative = cytotoxic: on the % scale 0 is the no-effect control and ±100 the full control effect
# Outline: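 Same-well viability check: GH3.TRE-Luc cells stimulated with 1 nM T3 alongside test compound for 23.5 h, followed by CellTiter-Fluor fluorescence.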
# [4] = qHTS assay to identify small molecule antagonists of the estrogen receptor alpha (ER-alpha) signaling pathway using the BG1 cell line - cell viability counter screen (AID 743081); conditions: BG1Luc4E2 viability, CellTiter-Fluor, 22 h; activity change, negative = cytotoxicity: at 70.3 µM (top of the series);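 further: compound given together with 17beta-estradiol as the ER stimulus; nearly all actives have a fitted effect of over 45% in size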; further: potency means the concentration at half of the fitted maximal effect; on activity change, negative = cytotoxicity: on the % scale 0 is the no-effect control and ±100 the full control effect
# [5] = qHTS assay to identify small molecule antagonists of the androgen receptor (AR) signaling pathway - cell viability counter screen (AID 743033; further: nearly all actives have a fitted effect of over 45% in size; further: potency means the concentration at half of the fitted maximal effect); conditions: AR-bla HEK293 viability, CellTiter-Glo luminescence, 16 h; activity change, negative = cytotoxicity: at 58.5 µM (top of the series) unless noted
# [6] = biological target: Estrogen receptor (Homo sapiens) (UniProt P03372); test: qHTS assay to identify small molecule antagonists of the estrogen receptor alpha (ER-alpha) signaling pathway (AID 743069; active means well fitted curve in the direction sought with a large enough effect in the signal ratio in the repeat runs, not every such curve was filed as active; inconclusive means weak or mixed curves, or effect the other way; inactive means no such curve, though single readings can be large or run the other way; the % refers to the signal ratio; further: on the % scale 0 is the no-effect control and ±100 the full control effect); conditions: HEK293 ER-alpha-UAS-bla, beta-lactamase ratio, antagonist mode; activity, negative = inhibition: at 69.4 µM (top of the series) unless noted
# UniProt P03372, sequence (P03372 whole entry, looked up): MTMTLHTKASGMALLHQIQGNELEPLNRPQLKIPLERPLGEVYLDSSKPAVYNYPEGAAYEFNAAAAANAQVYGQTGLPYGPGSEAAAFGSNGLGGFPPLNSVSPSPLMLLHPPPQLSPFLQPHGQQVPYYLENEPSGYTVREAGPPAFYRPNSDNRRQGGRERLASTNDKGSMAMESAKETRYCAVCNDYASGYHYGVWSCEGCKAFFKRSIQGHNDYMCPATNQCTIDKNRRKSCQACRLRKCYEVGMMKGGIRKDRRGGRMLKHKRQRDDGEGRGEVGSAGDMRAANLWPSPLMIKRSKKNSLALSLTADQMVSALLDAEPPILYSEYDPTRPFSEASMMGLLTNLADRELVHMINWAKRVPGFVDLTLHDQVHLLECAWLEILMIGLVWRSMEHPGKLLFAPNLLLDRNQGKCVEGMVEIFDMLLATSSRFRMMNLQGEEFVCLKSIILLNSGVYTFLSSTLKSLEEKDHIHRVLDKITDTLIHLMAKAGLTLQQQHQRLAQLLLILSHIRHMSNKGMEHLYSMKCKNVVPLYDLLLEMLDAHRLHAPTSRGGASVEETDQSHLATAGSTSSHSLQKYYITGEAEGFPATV
# Outline: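 HEK293 ER-alpha-UAS-bla GripTite cells, held overnight in 2% charcoal-stripped FBS, 5,000 cells/well, preincubated 4 h, then compound plus 17beta-estradiol for 18 h at 37C. Beta-lactamase read by LiveBLAzer B/G FRET substrate, 2 h at room temperature.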
# [7] = qHTS assay to identify aromatase inhibitors - cell viability counter screen (AID 743084); conditions: MCF-7 aro ERE viability, CellTiter-Fluor, 24 h; activity change, negative = cytotoxicity: at 70.3 µM (top of the series) unless noted;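 further: cells stimulated with testosterone during compound exposure; nearly all actives have a fitted effect of over 55% in size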; further: potency means the concentration at half of the fitted maximal effect; on activity change, negative = cytotoxicity: on the % scale 0 is the no-effect control and ±100 the full control effect
# [8] = biological target: Aryl hydrocarbon receptor (Homo sapiens) (UniProt P35869); test: qHTS assay to identify small molecule that activate the aryl hydrocarbon receptor (AhR) signaling pathway (AID 743085); conditions: HepG2 AhR-luc (HG2L7.5c1), luciferase, 24 h; series mostly up to 70.3 µM; further: nearly all actives have a fitted effect of over 15% in size; further: potency means the concentration at half of the fitted maximal effect
# UniProt P35869, sequence (P35869 whole entry, looked up): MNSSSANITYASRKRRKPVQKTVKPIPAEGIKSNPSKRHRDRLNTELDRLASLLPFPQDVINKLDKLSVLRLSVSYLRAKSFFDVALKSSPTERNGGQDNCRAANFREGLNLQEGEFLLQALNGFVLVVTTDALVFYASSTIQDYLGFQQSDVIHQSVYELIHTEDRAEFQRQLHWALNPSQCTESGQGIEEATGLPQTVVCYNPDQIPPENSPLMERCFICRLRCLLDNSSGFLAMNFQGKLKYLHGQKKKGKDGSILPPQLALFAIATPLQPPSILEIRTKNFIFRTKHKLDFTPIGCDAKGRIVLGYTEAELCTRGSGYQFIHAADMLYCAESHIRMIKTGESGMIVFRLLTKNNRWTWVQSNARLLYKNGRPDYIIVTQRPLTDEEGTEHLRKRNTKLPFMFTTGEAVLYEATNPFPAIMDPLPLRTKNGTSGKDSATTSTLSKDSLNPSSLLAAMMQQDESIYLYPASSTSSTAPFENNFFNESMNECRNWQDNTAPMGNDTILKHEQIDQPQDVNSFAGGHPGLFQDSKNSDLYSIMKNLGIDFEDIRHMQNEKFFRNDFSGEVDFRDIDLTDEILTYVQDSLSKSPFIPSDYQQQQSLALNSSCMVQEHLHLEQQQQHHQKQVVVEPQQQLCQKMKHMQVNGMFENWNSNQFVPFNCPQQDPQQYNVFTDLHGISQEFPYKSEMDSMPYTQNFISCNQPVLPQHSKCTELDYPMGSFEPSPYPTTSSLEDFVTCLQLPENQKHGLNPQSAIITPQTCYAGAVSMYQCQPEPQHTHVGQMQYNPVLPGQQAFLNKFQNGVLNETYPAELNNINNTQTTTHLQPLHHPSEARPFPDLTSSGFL
# Outline: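 Reporter assay in engineered HepG2 line HG2L7.5c1, whose plasmid carries twenty dioxin responsive elements upstream of firefly luciferase. Treatment lasted 24 h at 37C; ONE-Glo luminescence gauged induction.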
# [9] = qHTS assay to identify small molecule antagonists of the estrogen receptor alpha (ER-alpha) signaling pathway - cell viability counter screen (AID 743074; calls by dose curve;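 further: HEK293 cells carrying ER-alpha-UAS-bla reporter stimulated with 17beta-estradiol; nearly all actives have a fitted effect of over 45% in size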; further: potency means the concentration at half of the fitted maximal effect); conditions: ERalpha-bla HEK293 viability, CellTiter-Glo luminescence, 18 h; series mostly up to 69.4 µM
# [10] = qHTS assay to identify small molecule antagonists of the estrogen receptor alpha (ER-alpha) signaling pathway using the BG1 cell line (AID 743080; calls by dose curve;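 further: BG1 cells stimulated with 17beta-estradiol alongside compound; potency means the concentration at half of the fitted maximal effect; nearly all actives have a fitted effect of over 25% in size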); conditions: BG1Luc4E2 ERE-luciferase antagonist mode, luminescence; activity change, negative = inhibition: at 70.3 µM (top of the series) unless noted
# Outline: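 BG1-Luc-4E2 cells (endogenous full-length ER-alpha, 4xERE luciferase) hormone-starved 5 days in charcoal-stripped FBS, plated 4,000/well for 24 h, then compound plus 17beta-estradiol for 21.5 h at 37 C; ONE-Glo luminescence read.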
# [11] = biological target: Peroxisome proliferator-activated receptor gamma (Homo sapiens) (UniProt P37231); test: qHTS assay to identify small molecule agonists of the peroxisome proliferator-activated receptor gamma (PPARg) signaling pathway (AID 743094; active means well fitted activation curve with a large enough effect in the signal ratio in the repeat runs, not every such curve was filed as active; inconclusive means weak or mixed curves, or effect the other way; inactive means no such curve, though single readings can be large or run the other way; the % refers to the signal ratio; further: potency means the concentration at half of the fitted maximal effect); conditions: HEK293H PPARg-UAS-bla, beta-lactamase FRET ratio, 17 h; activation: at 57 µM (top of the series) unless noted
# UniProt P37231, sequence (P37231 whole entry, looked up): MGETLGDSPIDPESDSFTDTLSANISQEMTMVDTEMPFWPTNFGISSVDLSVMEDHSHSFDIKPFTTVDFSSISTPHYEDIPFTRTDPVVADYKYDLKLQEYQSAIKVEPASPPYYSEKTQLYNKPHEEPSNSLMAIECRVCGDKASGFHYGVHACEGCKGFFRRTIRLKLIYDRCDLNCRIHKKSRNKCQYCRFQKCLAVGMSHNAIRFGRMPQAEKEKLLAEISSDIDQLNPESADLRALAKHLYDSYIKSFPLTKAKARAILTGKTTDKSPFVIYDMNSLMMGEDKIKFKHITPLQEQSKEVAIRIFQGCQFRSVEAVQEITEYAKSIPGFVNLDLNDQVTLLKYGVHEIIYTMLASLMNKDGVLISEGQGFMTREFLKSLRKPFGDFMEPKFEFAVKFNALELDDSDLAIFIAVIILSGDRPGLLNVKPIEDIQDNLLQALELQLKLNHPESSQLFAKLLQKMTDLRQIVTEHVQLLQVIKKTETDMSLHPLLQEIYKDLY
# Outline: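 Following 5 h plating at 37C, PPARg-bla HEK293H cells receive compound or DMSO for 17 h; fluorescence intensity is recorded after LiveBLAzer B/G loading for 1 h at room temperature.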
# [12] = qHTS assay to identify small molecule antagonists of the androgen receptor (AR) signaling pathway using the MDA cell line - cell viability counter screen (AID 743041; further: potency means the concentration at half of the fitted maximal effect; nearly all actives have a fitted effect of over 45% in size); conditions: MDA-kb2 viability, CellTiter-Fluor, 16 h, cells co-treated with R1881 androgen agonist; viability change, negative = cytotoxic: at 70.3 µM (top of the series) unless noted
# Outline: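 MDA-kb2 AR-luc cells (MMTV-luciferase, AR/GR responsive) treated with compounds plus R1881 agonist for 16 h at 37C. CellTiter-Fluor added at 15.5 h; fluorescence read after 30 min in the same wells.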
# [13] = qHTS assay to identify small molecule antagonists of the thyroid receptor (TR) signaling pathway (AID 743065); conditions: GH3.TRE-Luc, T3-stimulated luciferase inhibition, 23.5 h; series mostly up to 70.3 µM; further: nearly all actives have a fitted effect of over 55% in size; further: potency means the concentration at half of the fitted maximal effect
# Outline: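 GH3.TRE-Luc rat pituitary cells (two TREs driving luciferase) were dosed with compound, then stimulated with 1 nM T3 (final) for 23.5 h at 37 C. ONE-Glo luminescence was the read-out, with CellTiter-Fluor fluorescence as the cytotoxicity counter-screen.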
# [14] = biological target: Estrogen receptor (Homo sapiens) (UniProt P03372); test: qHTS assay to identify small molecule agonists of the estrogen receptor alpha (ER-alpha) signaling pathway using the BG1 cell line (AID 743079); conditions: BG1Luc4E2 cells, ERE-luciferase agonist, 22 h; activation: at 70.3 µM (top of the series) unless noted; further: nearly all actives have a fitted effect of over 20% in size; further: potency means the concentration at half of the fitted maximal effect
# Aromatase (Homo sapiens) = Aromatase (Homo sapiens) (UniProt P11511); test: qHTS assay to identify aromatase inhibitors (AID 743083); conditions: MCF-7 aro ERE, testosterone-driven ERE luciferase, 24 h; activity, negative = inhibition: at 70.3 µM (top of the series); further: nearly all actives have a fitted effect of over 55% in size; further: potency means the concentration at half of the fitted maximal effect
# UniProt P11511, sequence (P11511 whole entry, looked up): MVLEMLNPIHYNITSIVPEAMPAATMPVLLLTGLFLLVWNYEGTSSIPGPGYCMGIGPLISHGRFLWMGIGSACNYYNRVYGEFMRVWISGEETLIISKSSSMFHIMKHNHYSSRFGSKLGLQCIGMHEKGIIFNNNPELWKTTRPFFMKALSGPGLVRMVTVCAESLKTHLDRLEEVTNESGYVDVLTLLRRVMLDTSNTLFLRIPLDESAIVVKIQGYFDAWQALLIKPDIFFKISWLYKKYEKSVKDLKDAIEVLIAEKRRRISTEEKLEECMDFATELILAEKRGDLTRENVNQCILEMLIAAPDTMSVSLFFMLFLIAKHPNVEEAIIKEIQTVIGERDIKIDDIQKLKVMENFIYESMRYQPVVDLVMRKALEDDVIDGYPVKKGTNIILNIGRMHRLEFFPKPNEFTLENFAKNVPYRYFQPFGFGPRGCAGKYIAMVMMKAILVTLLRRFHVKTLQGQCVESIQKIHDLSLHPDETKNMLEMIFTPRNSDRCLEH
# [15] = biological target: Estrogen receptor (Homo sapiens) (UniProt P03372); test: qHTS assay to identify small molecule agonists of the estrogen receptor alpha (ER-alpha) signaling pathway (AID 743075; calls by dose curve; further: potency means the concentration at half of the fitted maximal effect); conditions: HEK293 ER-alpha-UAS-bla, beta-lactamase FRET ratio, 18 h; series mostly up to 70.1 µM
# [16] = qHTS assay to identify small molecule that activate the aryl hydrocarbon receptor (AhR) signaling pathway - cell viability counter screen (AID 743086); conditions: HepG2-AhR-luc viability, CellTiter-Fluor, 24 h; series mostly up to 70.3 µM
# Outline: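 HepG2-AhR-luc (HG2L7.5c1) cells, 4000/well, treated 24 h at 37 C with compound; viability measured as CellTiter-Fluor fluorescence after 30 min in the same wells as the luciferase read.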
# Tags describe the fitted curve by direction and shape or compound fluorescence and quenching.
smiles,measurement,setting,value
Cc1nn(-c2cc(NS(C)(=O)=O)c(Cl)cc2Cl)c(=O)n1C(F)F,Potency,[1],"inconclusive: 27.5 µM [rising, partial curve, poor fit]"
same,Potency,[2],"inconclusive: 17.4 µM [rising, partial curve, poor fit]"
same,Potency,[3],inactive
same,Potency,[4],inactive
OCCSSCCO,Potency,[5],"inconclusive: 24.5 µM [cytotoxic, full curve]"
same,Potency,[6],inactive
same,Potency,[7],inactive
CCC[N+]1(C)CCCCC1,Potency,[5],"inconclusive: 49.2 µM [cytotoxic, partial curve, poor fit]"
same,Potency,[8],inactive
CCCCCCI,Potency,[1],inactive
CCOP(=S)(NC(C)C)Oc1ccccc1C(=O)OC(C)C (configuration not stated),Potency,[5],"inconclusive: 43.6 µM [cytotoxic, partial curve]"
same,Potency,[9],"inconclusive: 54.9 µM [cytotoxic, single point]"
same,Potency,[10],"inconclusive: 30.6 µM [falling, partial curve]"
same,Potency,[8],"inconclusive: 10.9 µM [activator, partial curve, poor fit]"
same,activation,[11],inconclusive: 6.37%
Nc1ccc([N+](=O)[O-])cc1[N+](=O)[O-],"activity change, negative = inhibition",[1],inconclusive: -27.3%
same,Potency,[2],"inconclusive: 30.1 µM [rising, partial curve, poor fit]"
same,Potency,[12],inconclusive: 66.8 µM [cytotoxic]
same,Potency,[3],"inconclusive: 75 µM [cytotoxic, single point]"
same,Potency,[13],"inconclusive: 53.1 µM [inhibitor, partial curve]"
same,Potency,[14],inactive
same,Potency,[4],inconclusive: 59.6 µM [cytotoxic]
same,Potency,Aromatase (Homo sapiens),inactive
same,Potency,[8],"inconclusive: 29.9 µM [activator, partial curve]"
Cc1ncsc1CCCl,Potency,[5],"inconclusive: 23.9 µM [rising, partial curve, poor fit]"
same,Potency,[4],"inconclusive: 2.37 µM [rising, full curve]"
N#Cc1cc(I)c(O)c(I)c1,Potency,[1],"inconclusive: 11 µM [rising, full curve]"
same,Potency,[2],"inconclusive: 34.7 µM [rising, partial curve, poor fit]"
same,Potency,[12],"inconclusive: 77 µM [cytotoxic, single point]"
same,Potency,[3],"inconclusive: 68.6 µM [cytotoxic, single point]"
same,Potency,[13],active: 27.3 µM
same,Potency,[9],"inconclusive: 8.71 µM [cytotoxic, full curve]"
same,Potency,Aromatase (Homo sapiens),"inconclusive: 68.6 µM [inhibitor, single point]"
same,Potency,[8],inactive
same,activation,[11],inconclusive: -18.7%
C[N+](C)(C)C,Potency,[5],inactive
same,Potency,[14],active: 49.1 µM
CO[C@@H]1[C@H](OC(=O)NC(=O)CCl)CC[C@]2(CO2)[C@H]1[C@@]1(C)O[C@@H]1CC=C(C)C,"activity change, negative = inhibition",[1],inconclusive: 6.32% [at 27 µM]
same,activation,[2],inconclusive: 34.7% [at 29.2 µM]
same,Potency,[3],"inconclusive: 21.1 µM [cytotoxic, partial curve, poor fit]"
same,Potency,[13],"inconclusive: 13.3 µM [inhibitor, partial curve, poor fit]"
same,Potency,[15],"inconclusive: 3.37 µM [falling, partial curve, poor fit]"
same,Potency,[7],"inconclusive: 18.8 µM [cytotoxic, single point]"
same,Potency,[8],inactive
same,Potency,[11],"inconclusive: 16.9 µM [activator, partial curve, poor fit]"
COc1ccc(O)c(C(C)(C)C)c1,Potency,[5],"inconclusive: 49.1 µM [cytotoxic, partial curve, poor fit]"
same,Potency,[11],inactive
CC1CC(CC2CCC(N)C(C)C2)CCC1N (configuration not stated),"activity change, negative = inhibition",[1],inconclusive: 0.748% [at 78.9 µM]
same,Potency,[12],active: 31.1 µM
same,Potency,[3],"inconclusive: 69.7 µM [cytotoxic, single point]"
same,Potency,[13],"inconclusive: 69.7 µM [inhibitor, single point]"
same,Potency,[9],inactive
same,Potency,[14],inactive
same,Potency,[10],"inconclusive: 34.9 µM [rising, partial curve, poor fit]"
same,Potency,[4],active: 31.1 µM
same,Potency,[7],"inconclusive: 62.1 µM [cytotoxic, partial curve, poor fit]"
same,Potency,[16],"inconclusive: 69.7 µM [falling, partial curve, poor fit]"
O=C(O)COc1cc(Cl)c(Cl)cc1Cl,"activity change, negative = inhibition",[1],inconclusive: 4.34%
same,Potency,[4],inactive
same,Potency,[11],inactive
COCCl,Potency,[2],inactive
same,Potency,[3],"inconclusive: 5.66 µM [rising, single point]"
same,Potency,[13],inactive
same,Potency,[9],"inconclusive: 20.3 µM [cytotoxic, single point]"
O=C1CCCO1,Potency,[2],inactive
same,Potency,[3],inactive
same,Potency,[13],inactive
